Test results taken from article PMC4336329 (PLoS ONE, 2015).
The campaign covered roughly 310,000 compounds. About 2,200 (0.71%) showed an effect of 50% or more. Effects have a minus sign here. The list shows a part of the results.

Target: human ether-à-go-go-related gene (hERG) potassium channel (human, UniProt Q12809)
Experiment: primary screen, population patch clamp on CHO cells stably expressing hERG

Chain of human ether-à-go-go-related gene (hERG) potassium channel (Q12809 whole entry, looked up): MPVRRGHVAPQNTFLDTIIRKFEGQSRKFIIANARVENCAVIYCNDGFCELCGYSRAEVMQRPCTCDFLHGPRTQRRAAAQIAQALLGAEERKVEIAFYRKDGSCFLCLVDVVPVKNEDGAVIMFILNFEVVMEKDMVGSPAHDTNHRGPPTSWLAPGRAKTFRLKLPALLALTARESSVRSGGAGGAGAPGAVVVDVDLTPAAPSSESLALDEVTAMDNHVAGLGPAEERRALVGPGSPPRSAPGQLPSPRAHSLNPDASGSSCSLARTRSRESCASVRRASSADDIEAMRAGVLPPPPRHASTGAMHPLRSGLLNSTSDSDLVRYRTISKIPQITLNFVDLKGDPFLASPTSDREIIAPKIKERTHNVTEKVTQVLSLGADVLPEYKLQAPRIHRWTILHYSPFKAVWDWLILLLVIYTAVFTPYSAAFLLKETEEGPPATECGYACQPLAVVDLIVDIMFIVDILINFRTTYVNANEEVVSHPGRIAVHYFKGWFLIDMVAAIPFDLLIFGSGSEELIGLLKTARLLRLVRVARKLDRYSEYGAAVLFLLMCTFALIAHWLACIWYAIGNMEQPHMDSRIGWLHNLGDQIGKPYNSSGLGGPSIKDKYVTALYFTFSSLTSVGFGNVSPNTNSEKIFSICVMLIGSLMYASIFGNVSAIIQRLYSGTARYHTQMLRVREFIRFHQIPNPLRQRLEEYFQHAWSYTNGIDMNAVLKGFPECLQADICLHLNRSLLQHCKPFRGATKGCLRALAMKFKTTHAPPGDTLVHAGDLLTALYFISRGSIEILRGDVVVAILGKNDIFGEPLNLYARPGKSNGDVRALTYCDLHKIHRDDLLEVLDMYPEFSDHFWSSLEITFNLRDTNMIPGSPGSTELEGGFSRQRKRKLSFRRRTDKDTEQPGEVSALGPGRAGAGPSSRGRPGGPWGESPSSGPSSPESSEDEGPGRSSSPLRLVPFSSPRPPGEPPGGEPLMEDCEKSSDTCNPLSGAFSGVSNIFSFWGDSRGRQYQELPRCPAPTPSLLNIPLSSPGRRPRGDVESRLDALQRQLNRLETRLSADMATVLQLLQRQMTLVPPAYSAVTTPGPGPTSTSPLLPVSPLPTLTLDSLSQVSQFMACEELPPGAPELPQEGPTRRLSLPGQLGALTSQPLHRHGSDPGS

SMILES	hERG current change (%, negative = inhibition) at 1uM
NS(=O)(=O)c1ccc(CCNC(=O)/C=C/c2ccccc2[N+](=O)[O-])cc1	14.7%
CCCCCn1c(=O)c(C(=O)Nc2cnccn2)c(O)c2ccccc21	12.1%
Cn1c(=O)c2cn(-c3ccccc3)cc2n(C)c1=O	11.1%
Fc1cccc2ncnc(OCc3ccccc3)c12	8.53%
O=C(Nc1ccc(F)cc1F)c1cc(Cl)sc1Cl	5.71%
CCc1ccc(C(=O)N/N=C(\C)c2cccnc2)s1	3.33%
CC1CCCCC1NS(=O)(=O)CCNC(=O)c1ccc2c(c1)OCO2 (stereo not drawn)	12.4%
CC(=O)NCCOc1cccc2ccccc12	6.56%
Cc1cc(OCCN2CCC(Cc3ccccc3)CC2)ccc1[N+](=O)[O-].O=C(O)C(=O)O	-53.5%
COC(=O)c1cccc(NS(=O)(=O)c2ccc(OC)c(C(=O)N3CCOCC3)c2)c1C	16.5%
CC(=O)c1cccc(NC(=O)Cc2ccc3c(c2)CCCC3)c1	9.77%
CC(OC(=O)Cn1cnc2ccccc2c1=O)C(=O)NCc1ccccc1 (stereo not drawn)	15.9%
C#CCOCCOCCOCCNc1nc(N2CCOCC2)nc(N2CCN(C(=O)[C@H](C)n3cc(CCC[NH+]=C(N)N)nn3)CC2)n1.[Cl-]	8%
O=C(CNS(=O)(=O)c1ccc(F)c(Cl)c1)N1CCCCCC1	4.84%
COc1cc(NC(=O)c2sc3ncn(CC(=O)N4CCCCC4)c(=O)c3c2C)cc(OC)c1OC	-5.49%
COc1cc2c(=O)n(CCCC(=O)NCC3CCCO3)c(=O)n(CC(=O)c3ccc(F)cc3)c2cc1OC (stereo not drawn)	6.14%
COc1ccc(CN(C(=O)c2snc(C(N)=O)c2N)C(C(=O)NC2CCCC2)c2ccc(OC)cc2)cc1 (stereo not drawn)	-4.91%
CCC(=O)N1CCC(c2ccc(OC)cc2)=N1	11.6%
COc1ccc(CCNc2c(C=O)c(=O)[nH]c3ccccc23)cc1OC	10.1%
O=C(Nc1ccc2oc(=O)ccc2c1)c1cc([N+](=O)[O-])ccc1N1CCOCC1	-7.94%
CC(C)CCn1cnc2c1c(=O)n(CC(=O)NC(N)=O)c(=O)n2Cc1ccccc1	12.8%
CC(C)=CC(=O)Nc1ccc(OCc2ccccc2)cc1	13.3%

SMILES	hERG current change (%, negative = inhibition) at 1uM
CCCN1CCc2c(sc(NC(=O)C3CCN(S(=O)(=O)c4cccs4)CC3)c2C(N)=O)C1.Cl	-2.09%
COc1ccc(CN2C(=O)NC(=O)/C(=C\c3cc(OC)c(OC)c(OC)c3)C2=O)cc1	15.9%
C/C=C/c1ccc(OCC(=O)OCc2csc(Nc3ccc(C)cc3)n2)c(OC)c1	7.08%
Cc1cc(C(=O)Nc2ccc3c(c2)OCO3)no1	9.98%
COc1ccc(CN(C)S(=O)(=O)c2nnc(NC(=O)c3cccc(OC)c3)s2)cc1	20.1%
CC(=O)c1ccc(N2CCN(C(=O)/C=C/c3ccc4ccccc4n3)CC2)cc1	-10.8%
CC(=O)c1cccc(NC(=O)C2CCN(S(=O)(=O)c3ccccc3)CC2)c1	17.1%
Cc1ccc(N2CC(O)=C(c3ccccc3)C2=N)cc1	5.14%
CCCN(CCC)C(=O)Cc1ccc(F)cc1	14.4%
CCOc1ccc(NC(=O)CN(C)C(=O)c2csc3c2CCCC3)cc1OCC	5.23%
Cn1ccnc1C(=O)c1cc(SCC(=O)NCc2ccccc2)nc2ccccc12	9.83%
O=C(NNC(=O)C1CCN(c2ncccn2)CC1)c1ccncc1	11.3%
O=C(/C=C/c1ccc(Cl)cc1Cl)N(Cc1ccccc1)C1CCS(=O)(=O)C1 (stereo not drawn)	4.57%
O=C(/C=C/Nc1ccccc1Br)c1ccccn1	-8.06%
CC(=O)Nc1ccc(N=Cc2nc(-c3ccc(C)cc3)oc2O)cc1	1.06%
C=CCc1ccc(OCC(O)CN2CCCCC2)c(OC)c1 (stereo not drawn)	-16.5%
O=C(CN1C(=O)CCS(=O)(=O)c2ccccc21)NCCc1ccccc1	11.5%
CCOC(=O)CN1C(=O)/C(=C/c2ccc(Cl)cc2)Oc2ccccc21	10%
CCS(=O)(=O)c1ccc(O)c(NC(=O)NC2CCCCC2)c1	14%
COC(=O)c1ccc2[nH]c([C@H](C)O)c([C@H](C)O)c2c1	6.01%
CC(CN1CCOCC1)C(=O)O.Cl (stereo not drawn)	-5.33%
O=C(c1cnccn1)N(Cc1cccs1)C1(C(=O)NC2CCCCC2)CCCCC1	-8.69%

SMILES	hERG current change (%, negative = inhibition) at 1uM
C/C(=N\NC(=O)c1cccc(N/N=C(\C)c2ccccc2)c1)c1ccccc1	2.46%
CC(=O)Nc1cccc(NC(=O)c2cc([N+](=O)[O-])ccc2N2CCCCC2)c1	2.94%
COc1ccc2cc(C(=O)N3CCN(c4ccc(F)cc4)CC3)[nH]c2c1	9.32%
CCN(CC)S(=O)(=O)c1cccc(C(=O)Oc2cccc(NC(=O)c3cccs3)c2)c1	7.05%
COc1cc(NC(=O)c2cc3sccc3n2C)cc(OC)c1	-2.3%
CCN(CC)c1ccc(/C=N/NC(=O)CNC(=O)c2ccccn2)cc1	-7.85%
O=C(NCC(=O)N(Cc1ccco1)C(C(=O)NC1CCCCC1)c1cccnc1)c1cccs1 (stereo not drawn)	0.518%
COc1ccc(Cl)cc1NC(=O)CSc1nnc(CNC(=O)c2ccco2)o1	-4.59%
O=C(OC1CCOC1=O)C1CCN(S(=O)(=O)c2ccc(Cl)c(C(F)(F)F)c2)CC1 (stereo not drawn)	13.1%
Cc1ccc(C(=O)NCC(=O)NC2CCC(C)CC2)s1 (stereo not drawn)	16.3%
Cn1nnc(NC(=S)NC(=O)c2ccco2)n1	14.3%
CCc1cccc(NC(=O)CNC(=O)N2CC(=O)Nc3ccccc32)c1	-0.0846%
Cc1cc(C(=O)O[C@H]2[C@H](C)NS(=O)(=O)[C@H]3C[C@@H]4C=C[C@]23O4)cc([N+](=O)[O-])c1	9.78%
O=C(N/C(=C/c1ccco1)C(=O)N1CCCC1)c1cccs1	10.1%
CC(NC(=O)c1ccc(C(F)(F)F)cc1)C(c1ccccc1)N1CCOCC1 (stereo not drawn)	3.26%
COc1ccc(C(=O)OCC(=O)NCCCc2ccccc2)cc1OC	10.3%
Cn1cc(S(=O)(=O)N2CCCC2)cc1C(=O)NCc1ccc(Cl)cc1	4.72%
NS(=O)(=O)c1ccc(CNC(=O)CNC(=O)c2ccc(Br)o2)cc1	19.7%
Cc1[nH][nH]c(=O)c1C(c1ccccc1[N+](=O)[O-])C(C#N)C#N (stereo not drawn)	16%
O=C(CCc1ccc(S(=O)(=O)N2CCOCC2)cc1)NCCCN1CCCC1=O	8.23%
CC(C)Cn1c(SCC(=O)NCCCN2CCCC2=O)nc2ccccc21	19.8%
COc1ccc2c(c1)N(C(=O)CN1C(=O)C3CCCCC3C1=O)C(C)(C)C=C2C (stereo not drawn)	13.1%

SMILES	hERG current change (%, negative = inhibition) at 1uM
O=C(Cn1ncc2c(=O)oc3ccccc3c21)NCCC1=CCCCC1	13.2%
O=C(NC(=O)c1ccccc1)C1=C(N2CCCC2)COC1=O	9.76%
COC(=O)c1ccc(S(=O)(=O)NNC(=O)COc2ccc(C)cc2)cc1	14%
CSc1ccccc1NC(=O)CSCc1ccccc1Br	11.2%
CN(C)c1ccc(/C=N/NC(=O)c2nnn(-c3nonc3N)c2COc2ccc(F)cc2)cc1	12.3%
COc1ccccc1C(C)NC(=O)c1cc(S(=O)(=O)N2CCCCC2)ccc1C (stereo not drawn)	11%
CCSc1nnc(SCC(=O)NNC(=O)c2ccccc2F)s1	16.3%
Cc1onc(-c2ccccc2Cl)c1C(=O)NCC1CCCO1 (stereo not drawn)	2.91%
Cc1cc(C)n(CC2CC(=O)N(c3ccc(C)c(Cl)c3)C2=O)n1 (stereo not drawn)	4.16%
COc1ccc(N2C(=O)CSC2c2cccs2)cc1 (stereo not drawn)	8.29%
NS(=O)(=O)c1ccc(CCNC(=O)C2CCN(S(=O)(=O)c3ccccc3)CC2)cc1	6.13%
O=C(COC(=O)c1c(F)cccc1Cl)NC(=O)Nc1ccc2c(c1)OCCO2	12.1%
Cc1cc2c(cc1S(=O)(=O)N1CCN(c3ccccc3)CC1)OCCN2C	3.14%
CCN(CC)S(=O)(=O)c1ccc(NN=C2CCN(C(C)C)CC2)c([N+](=O)[O-])c1	-10.8%
CC1CCCC(C)N1C(=O)CSc1nccc(=O)[nH]1 (stereo not drawn)	1.24%
O=c1[nH]cc(F)c(=O)[nH]1	9.67%
C1CCCN(c2nc3nonc3nc2N2CCCCCC2)CC1	11.4%
Cc1ccc(S(=O)(=O)Nc2cnn(-c3ccccc3)c(=O)c2Cl)cc1	10.4%
CCN1C(=O)NC(=O)/C(=C\c2cn(CC(=O)N3CCCC3)c3ccccc23)C1=O	14%
CCOc1ccccc1NS(=O)(=O)c1ccc2c(c1)n(C)c(=O)c(=O)n2C	-4.69%
C=CCn1c(C)cc(C(=O)Cn2c(C(C)O)nc3ccccc32)c1C (stereo not drawn)	8.41%
